The labels stand for the following.
B1: GPR68, Q15743 (parent)
chain: MGNITADNSSMSCTIDHTIHQTLAPVVYVTVLVVGFPANCLSLYFGYLQIKARNELGVYLCNLTVADLFYICSLPFWLQYVLQHDNWSHGDLSCQVCGILLYENIYISVGFLCCISVDRYLAVAHPFRFHQFRTLKAAVGVSVVIWAKELLTSIYFLMHEEVIEDENQHRVCFEHYPIQAWQRAINYYRFLVGFLFPICLLLASYQGILRAVRRSHGTQKSRKDQIQRLVLSTVVIFLACFLPYHVLLLVRSVWEASCDFAKGVFNAYHFSLLLTSFNCVADPVLYCFVSETTHRDLARLRGACLAFLTCSRTGRAREAYPLGAPEASGKSGAQGEEPELLTKLHPAFQTPNSPGSGGFPTGRLA

Variants of B1 are the subject of data set [1]. Description: cAMP reporter score (Enrich2 score, wild type = 0); higher = more signal; HEK293T, FACS bins.
In data set [2] the parent is B1. Description: surface expression score (Enrich2 score, wild type = 0); higher = more signal; HEK293T, FACS bins.

Scores with a large standard error are left out. The source holds two more conditions with little spread; they are left out. Read del as a deletion of the residues named and ins as an insertion between two positions. For some assays here: How much ogerin was present is not stated here.

Regarding V81Y, the cAMP reporter score was found to be 0.178 in data set [1] (pH 5.5); 0.303 in data set [1] (pH 6, modulator: ogerin); 2.29 in data set [1] (pH 6.5, modulator: ogerin). For the same variant, in data set [2], the surface expression score amounted to 0.317.

Regarding V81W, the cAMP reporter score in data set [1] (pH 5.5) is -1.63; in data set [1] (pH 6) it was -0.846; in data set [1] (pH 6, modulator: ogerin) it was -0.978; in data set [1] (pH 6.5, modulator: ogerin), -0.596. The surface expression score in data set [2] came to 0.635.

Regarding V81P, the cAMP reporter score in data set [1] (pH 5.5) was -1.28; in data set [1] (pH 6) it was -0.854; in data set [1] (pH 6, modulator: ogerin) it was -1.71; in data set [1] (pH 6.5, modulator: ogerin), -0.277. Further, the surface expression score in data set [2] was -1.19.

As to V81A, the cAMP reporter score in data set [1] (pH 5.5) is 0.375; in data set [1] (pH 6) it was -0.363; in data set [1] (pH 6, modulator: ogerin), -0.126; in data set [1] (pH 6.5, modulator: ogerin), -0.56. Further, the surface expression score in data set [2] worked out at 0.464.

L78_Q79insGSG: the cAMP reporter score is -1.02 in data set [1] (pH 5.5) and -1.79 in data set [1] (pH 6). Besides, the surface expression score in data set [2] was -1.96.

In the case of L82_Q83insGS, the cAMP reporter score in data set [1] (pH 5.5) was -1.65; in data set [1] (pH 6), -1.58; in data set [1] (pH 6, modulator: ogerin), -1.82; in data set [1] (pH 6.5, modulator: ogerin), -1.03. The surface expression score in data set [2] was 0.907.

Y80_V81insG: the cAMP reporter score in data set [1] (pH 5.5) was -1.41; in data set [1] (pH 6) it was -0.83; in data set [1] (pH 6, modulator: ogerin), -1.91; in data set [1] (pH 6.5, modulator: ogerin) it was -1.7. Further, the surface expression score in data set [2] is -1.16.

Regarding W87_S88insGS, the cAMP reporter score was -1.59 in data set [1] (pH 5.5); -1.36 in data set [1] (pH 6); -2.06 in data set [1] (pH 6, modulator: ogerin); -0.493 in data set [1] (pH 6.5, modulator: ogerin). Moreover, the surface expression score in data set [2] is -1.29.

Regarding L78G, the cAMP reporter score is -1.08 in data set [1] (pH 5.5); -2.15 in data set [1] (pH 6); -0.588 in data set [1] (pH 6, modulator: ogerin); -1.1 in data set [1] (pH 6.5, modulator: ogerin). In data set [2], the surface expression score is -1.78.

Take L78R: the cAMP reporter score in data set [1] (pH 5.5) is -1.68; in data set [1] (pH 6), -1.55; in data set [1] (pH 6, modulator: ogerin), -1.48; in data set [1] (pH 6.5, modulator: ogerin) it was -0.782. In addition, the surface expression score in data set [2] is -1.2.

For L78F, the cAMP reporter score is -0.702 in data set [1] (pH 5.5); -0.182 in data set [1] (pH 6); -0.282 in data set [1] (pH 6, modulator: ogerin). The surface expression score in data set [2] is -0.546.

For L78E, the cAMP reporter score in data set [1] (pH 5.5) was -1.43; in data set [1] (pH 6), -1.79; in data set [1] (pH 6, modulator: ogerin) it was -1.09; in data set [1] (pH 6.5, modulator: ogerin), -0.777. For the same variant, the surface expression score in data set [2] was -2.94.

As to L78W, the cAMP reporter score in data set [1] (pH 5.5) is -0.626; in data set [1] (pH 6) it was -0.457; in data set [1] (pH 6, modulator: ogerin), -0.638; in data set [1] (pH 6.5, modulator: ogerin), -1.37. In addition, the surface expression score in data set [2] is -0.528.

As for L78D, the cAMP reporter score in data set [1] (pH 5.5) is -1.79; in data set [1] (pH 6), -1.29; in data set [1] (pH 6.5, modulator: ogerin), -0.491. Further, the surface expression score in data set [2] was -3.58.

For the variant L78Q, the cAMP reporter score in data set [1] (pH 5.5) is -1.43; in data set [1] (pH 6) it was -0.952; in data set [1] (pH 6, modulator: ogerin), -1.7; in data set [1] (pH 6.5, modulator: ogerin), -1.74. In addition, the surface expression score in data set [2] is -1.65.

Regarding L78T, the cAMP reporter score in data set [1] (pH 5.5) was -0.876; in data set [1] (pH 6.5, modulator: ogerin) it was 0.34. Moreover, the surface expression score in data set [2] was -1.23.

With L78M, the cAMP reporter score in data set [1] (pH 5.5) was -0.476; in data set [1] (pH 6), -0.518; in data set [1] (pH 6, modulator: ogerin) it was -0.661; in data set [1] (pH 6.5, modulator: ogerin) it was -1.07. For the same variant, the surface expression score in data set [2] was -0.599.

Take L78K: the cAMP reporter score is -1.25 in data set [1] (pH 5.5); -1.46 in data set [1] (pH 6); -1.11 in data set [1] (pH 6, modulator: ogerin); -1.09 in data set [1] (pH 6.5, modulator: ogerin). The surface expression score in data set [2] was -1.44.

For the variant L78H, the cAMP reporter score in data set [1] (pH 5.5) is -0.985; in data set [1] (pH 6), -0.621; in data set [1] (pH 6, modulator: ogerin) it was -1.54; in data set [1] (pH 6.5, modulator: ogerin) it was -1.39.

Turning to L78C, the cAMP reporter score was -0.811 in data set [1] (pH 5.5); -1.92 in data set [1] (pH 6, modulator: ogerin); -0.999 in data set [1] (pH 6.5, modulator: ogerin). Further, the surface expression score in data set [2] turned out to be 1.15.

Turning to L78S, the cAMP reporter score in data set [1] (pH 5.5) was -0.967; in data set [1] (pH 6.5, modulator: ogerin) it was -0.38. For the same variant, the surface expression score in data set [2] is 0.169.

Regarding L78I, the cAMP reporter score in data set [1] (pH 5.5) is 0.402; in data set [1] (pH 6, modulator: ogerin), -0.692; in data set [1] (pH 6.5, modulator: ogerin), -0.748. Besides, the surface expression score in data set [2] is 1.29.

Turning to L78P, the cAMP reporter score in data set [1] (pH 5.5) was -0.698; in data set [1] (pH 6), -1.59; in data set [1] (pH 6, modulator: ogerin) it was -1.66; in data set [1] (pH 6.5, modulator: ogerin) it was -0.469. In data set [2], the surface expression score is -0.806.

On to L78V, for which the cAMP reporter score in data set [1] (pH 5.5) was 0.41; in data set [1] (pH 6), -1.28; in data set [1] (pH 6, modulator: ogerin), -0.526; in data set [1] (pH 6.5, modulator: ogerin) it was -0.591. Also, in data set [2], the surface expression score is -0.255.

Regarding L78A, the cAMP reporter score was 0.606 in data set [1] (pH 5.5); -0.9 in data set [1] (pH 6, modulator: ogerin); -0.161 in data set [1] (pH 6.5, modulator: ogerin). Also, the surface expression score in data set [2] was -0.183.

As to L78Y, the cAMP reporter score in data set [1] (pH 5.5) was -0.667; in data set [1] (pH 6), -0.559; in data set [1] (pH 6, modulator: ogerin) it was -1.15; in data set [1] (pH 6.5, modulator: ogerin) it was -0.718. Also, the surface expression score in data set [2] is 0.348.

As to L78N, the cAMP reporter score in data set [1] (pH 5.5) was -0.411; in data set [1] (pH 6) it was -0.522; in data set [1] (pH 6, modulator: ogerin), -0.683.

As for D85_N86insG, the cAMP reporter score was -1.5 in data set [1] (pH 5.5); -1.42 in data set [1] (pH 6); -1.84 in data set [1] (pH 6, modulator: ogerin); -0.82 in data set [1] (pH 6.5, modulator: ogerin). Moreover, the surface expression score in data set [2] amounted to 0.455.

As for D85del, the cAMP reporter score is -0.746 in data set [1] (pH 5.5); -1.01 in data set [1] (pH 6); -0.638 in data set [1] (pH 6, modulator: ogerin); -0.943 in data set [1] (pH 6.5, modulator: ogerin). For the same variant, the surface expression score in data set [2] is -0.256.

Turning to D85_N86del, the cAMP reporter score is -1.13 in data set [1] (pH 5.5); -0.345 in data set [1] (pH 6); -1.45 in data set [1] (pH 6, modulator: ogerin); -1.17 in data set [1] (pH 6.5, modulator: ogerin). The surface expression score in data set [2] was -1.52.

As to W87_H89del, the cAMP reporter score in data set [1] (pH 5.5) is -1.75; in data set [1] (pH 6), -0.61; in data set [1] (pH 6, modulator: ogerin), -1.04; in data set [1] (pH 6.5, modulator: ogerin) it was -1.3. The surface expression score in data set [2] is -1.39.

H84_D85insG: the cAMP reporter score in data set [1] (pH 5.5) is -1.18; in data set [1] (pH 6), -1.94; in data set [1] (pH 6, modulator: ogerin) it was -1.57; in data set [1] (pH 6.5, modulator: ogerin) it was -1.4. In data set [2], the surface expression score is 1.86.

Take G90_D91insG: the cAMP reporter score in data set [1] (pH 5.5) was -2.35; in data set [1] (pH 6, modulator: ogerin) it was -0.877; in data set [1] (pH 6.5, modulator: ogerin) it was -0.378. The surface expression score in data set [2] is -1.21.

(Values after the GPR68 mutational scans of Howard et al. (2025).)
